# Reference: PubChem BioAssay AID1671193 (National Center for Advancing Translational Sciences (NCATS), 2021)
# Values joined by “and” are separate entries in the source; they are usually repeats but may differ in a detail not shown here. Equal entries are not always repeated. The campaign covered roughly 150,000 compounds. About 180 (0.12%) were called active. Inconclusive means that the source gave no clear call. Such entries were picked first, then a sample of the others. Calls come from the whole dose curve; as a rule, active = well fitted cell-killing curve with a large enough effect; inconclusive = small, poorly fitted or top-dose-only effect, or effect the other way; inactive = flat fitted curve, though single readings scatter. Potencies of inconclusive entries are doubtful fits and often do not repeat.
# Assay: GF-AFC viability counterscreen for inhibitors of alpha-synuclein gene (SNCA) expression; note: nearly all actives have a fitted effect of over 30% in size;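 for activity change, negative = cytotoxicity: 0% = DMSO-treated cells and -100% = medium-only wells without cells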
# Settings: HEK-293-SNCA-luc viability, GF-AFC fluorescence, 24 h; activity change, negative = cytotoxicity: at 57.1 µM (top of the series) unless noted
# Summary of the method: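 HEK-293-SNCA-luc cells (1500/well) plated 24 h, then exposed 24 h to a dilution series; GF-AFC added 30 min at 37C, fluorescence 405/540 nm; normalised to medium-only and DMSO wells, Hill fit.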
# Potency is the fitted concentration of half-maximal effect; tags give direction and shape of the fitted curve.
Structure (SMILES),Potency,"activity change, negative = cytotoxicity"
CC1(C(=O)NCCOc2ccccc2)CCCc2cnc(Nc3cccnc3)nc21 (centres undefined),"inconclusive: 2.82 µM [cytotoxic, full curve, poor fit]",
COCCNC(=O)[C@@H](C)C1CC[C@@]2(C)Cc3sc(NC(=O)CN(C)C)nc3[C@@H](C)[C@@H]2[C@H]1O (some centres undefined),,inactive: 1.78%
CC(N)=O,"inconclusive: 20 µM [rising, partial curve, poor fit]",
O=c1c(-c2cccs2)nc2cnc(N3CCNCC3)nc2n1Cc1cccs1,"inconclusive: 14.1 µM [rising, partial curve]",
Cc1ccc(NC(=O)Nc2cc(C(F)(F)F)ccc2F)cc1Nc1ccc2c(c1)NC(=O)C2=Cc1ccc[nH]1,"inconclusive: 24.1 µM [cytotoxic, partial curve]",
COc1ccc(Cn2cc(C(=O)c3ccc(C)cc3)c(=O)c3cc(OC)c(OC)cc32)cc1,"inconclusive: 17.8 µM [cytotoxic, partial curve, poor fit]",
Cc1oc(-c2cccc(Cl)c2)nc1CN1CCC(C(=O)NCCCN2CCN(c3ccc(F)cc3)CC2)CC1,"inconclusive: 39.8 µM [rising, single point]",
COc1ncc2nc(-c3cc(F)cc(F)c3)c(=O)n(CCC#N)c2n1,"inconclusive: 4.47 µM [cytotoxic, single point]",
O=C([C@@H]1C[C@H](Oc2ccccc2)CN1C(=O)c1cccnc1)N1CCCC1,,inconclusive: 11.9%
COc1ccc(N2CC3CCC(C2)N3Cc2cccc(-c3cccnc3)c2)cc1,,inactive: -1.9%
COc1ccc(-c2cc(N3CCCC(NC(=O)c4ccsc4)C3)n[nH]2)cc1 (centres undefined),"inconclusive: 20 µM [cytotoxic, partial curve, poor fit]",
CN(Cc1ccc2nonc2c1)C(=O)C1CCN(C(=O)C2CCCC2)CC1,,inactive: -6.55%
O=[S+]([O-])(c1cccs1)N1CCCC2(CC(c3ccccc3)=NO2)C1 (centres undefined),,inactive: -13.4%
Cc1ccc(OC[C@H](O)[C@H](C)NC(C)C)c2c1CCC2,"inconclusive: 4.23 µM [cytotoxic, single point]",
N#CCCn1c(=O)c(-c2ccc(F)cc2)nc2cnc(OCc3ccccc3)nc21,"inconclusive: 7.08 µM [cytotoxic, single point]",
COc1ccc(-c2cc(N3CCCN(C(=O)c4ccc(C)s4)CC3)n[nH]2)cc1,"inconclusive: 39.8 µM [cytotoxic, partial curve, poor fit]",
COc1ccc(N2CCN(c3nc(C(=O)NCc4ccc(F)cc4F)cs3)CC2)cc1,,inactive: -23.8%
CCc1ccc(NC(=O)Cn2ccn3nc4c(c3c2=O)CC(C)CC4)cc1 (centres undefined),,inactive: -6.66%
Cc1ccc2nc(-c3ccc(F)cc3)c(CN3CCCC(C(N)=O)C3)cc2c1 (centres undefined),"inconclusive: 7.08 µM [cytotoxic, full curve, poor fit]",
COc1cc(OC)cc(N2C(=O)N(CC(=O)c3ccc(F)cc3)c3ccccc3S2(=O)=O)c1,"inconclusive: 2.24 µM [cytotoxic, full curve, poor fit]",
Cc1ccccc1C(=O)NC1CN(c2ccnc3ccnn23)C1,,inactive: 13.4%
Cc1cccc(NC(=O)c2sc(-n3nc(C)c(Cc4ccc5c(c4)OCO5)c3C)nc2C)c1C,,inconclusive: 43.3%

Structure (SMILES),Potency,"activity change, negative = cytotoxicity"
COC[C@@H]1CN(C(=O)c2cn[nH]c2C)C[C@H]1c1ccncc1,,inactive: -5.44%
Cc1ccc(Cn2c(SCc3ccc(C(=O)N4CCCCCC4)cc3)nc3ccncc32)cc1,"inconclusive: 39.8 µM [cytotoxic, single point]",
CCn1ccc(C(=O)N2CCCn3cc(-c4cccc(C#N)c4)nc32)n1,,inactive: -13.3%
Cc1cncc(-c2ccc(S(N)(=O)=O)cc2F)c1,"inconclusive: 0.794 µM [rising, full curve, poor fit]",
Cc1nc([C@@H]2CN(C(=O)c3cccc(C#N)c3)C[C@H]2C(N)=O)n[nH]1,"inconclusive: 3.55 µM [cytotoxic, single point]",
Cc1ccc(C(=O)N2CCC3(C2)C(=O)N(C)c2ccccc23)cc1 (centres undefined),"inconclusive: 7.94 µM [cytotoxic, full curve, poor fit]",
CCc1ccc(Nc2nnc(-c3cc4cc(OC)ccc4oc3=O)s2)cc1,"inconclusive: 2.24 µM [cytotoxic, single point]",
Cc1ccc(NC(=O)c2c(C)oc3ccc(O)c(CN(C)Cc4ccccc4)c23)c(C)c1,"inconclusive: 39.8 µM [cytotoxic, single point]",
CC(=O)N1CCCN(C(=O)c2ccc3c(c2)NC(C)(COc2cccnc2)CO3)CC1 (centres undefined),,inactive: -1.79% [at 87.6 µM]
Cc1cc(C)c(CNC(=O)c2nc(-c3cccc(C(F)(F)F)c3)cc3[nH]ccc23)c(=O)[nH]1,"inconclusive: 39.8 µM [cytotoxic, single point]",
O=C1COc2ccc(Nc3ccc(Cl)cc3)nc2CN1Cc1nc2ccccc2s1,active: 31.6 µM,
COc1ccc(NC(=O)CCn2c(-c3ccc(F)cc3)cc(C(C)=O)c2C)c(OC)c1,"inconclusive: 8.91 µM [cytotoxic, full curve, poor fit]",
Cc1cc2nc3n(c(=O)c2n1CC(=O)N1CCCc2ccccc21)CCCCC3,"inconclusive: 15.8 µM [cytotoxic, partial curve, poor fit]",
Cc1cccc(C2c3cc(OCc4nc(C(=O)NC(C)C)co4)ccc3CCN2C(=O)C2CC2)c1 (centres undefined),,inactive: -9.31%
Cc1c[nH]c2ncnc(N3CCC(CN)(C(=O)Nc4cccc(OC(=O)N(C)C)c4)CC3)c12,,inactive: -24.2%
COc1cccc(CNC(=O)[C@@H]2C[C@@H](O)CN2C2CCN(C(=O)Cc3ccc(Cl)cc3)CC2)c1,,inactive: -5.34%
COC(=O)c1sccc1S(=O)(=O)N1CCN(c2ccc(Cl)cc2)CC1,"inconclusive: 28.2 µM [rising, single point]",
CN1C(=O)C(CC(=O)Nc2cccnc2)=C2CCCCC21 (centres undefined),,inactive: 5.29%
N#CC(=C1Nc2ccccc2S1)c1ccnc(OCc2ccc(CN3CCOCC3)cc2)n1,"inconclusive: 12.1 µM [rising, partial curve]",
O=C1NC2(CCCN(CC3CCCC3)C2)Oc2ccccc21 (centres undefined),,inactive: -2.37% [at 87.6 µM]
O=C(c1ccc(-c2ncc3cnc(-c4cccc(F)c4)cn23)cc1)N1CCc2cccnc21,active: 25.1 µM,
COc1ccc(-c2cc(N3CCCC(NC(=O)c4ccc(C)cc4)C3)n[nH]2)cc1 (centres undefined),"inconclusive: 22.4 µM [cytotoxic, partial curve, poor fit]",

Structure (SMILES),Potency,"activity change, negative = cytotoxicity"
CC(C)CC(=O)Nc1n[nH]c2c1CN(C(=O)C1CCN(C)CC1)C2(C)C,"inconclusive: 21.5 µM [cytotoxic, partial curve] and inconclusive: 11.9 µM [cytotoxic, partial curve, poor fit]",
O=C(c1ccccc1F)N1c2nc(-c3ccco3)nn2C2(CCCCC2)[C@@H]2CCCC[C@@H]21,"inconclusive: 10 µM [cytotoxic, partial curve, poor fit]",
COC(=O)c1nc2n(n1)C(c1cc(OC)ccc1OC)C=C(c1ccc(Br)cc1)N2 (centres undefined),"inconclusive: 39.8 µM [rising, single point]",
CC(C)C[C@@H]1N[C@H](C(=O)NCc2ccco2)Cc2c[nH]c3cccc1c23,"inconclusive: 39.8 µM [cytotoxic, single point]",
CCOCCCn1c(=N)c(C(=O)NC(C)c2ccccc2)cc2c(=O)n3cccc(C)c3nc21 (centres undefined),"inconclusive: 17.8 µM [rising, partial curve]",
CN(C(=O)c1ccc2c(c1)N(Cc1ccc(F)cc1)C(=O)c1ccccc1S2(=O)=O)C1CCCCC1,"inconclusive: 39.8 µM [cytotoxic, single point]",
CCn1c(=O)n([C@H]2CCCN(c3nccc(-c4cc5ccccc5o4)n3)C2)c2ccccc21,"inconclusive: 0.006 µM [cytotoxic, full curve]",
c1ccc(CCCNc2ncncc2-c2nc(-c3ccccc3)no2)cc1,,inactive: 10.8%
CCCNC(=O)N1CCC(Oc2ccccc2-c2nc(-c3ccncc3)no2)C1 (centres undefined),,inactive: -9.63%
CNC(=O)c1cccc(NC(=O)c2nc(C(O)c3ccccc3F)oc2C)c1 (centres undefined),,inactive: -14.2% [at 87.6 µM]
Cc1noc2c(NCCN(C)C)cc(-c3cccc(C(F)(F)F)c3)nc12,,inactive: 3.37% [at 87.6 µM]
CCOc1ccccc1C(=O)Nc1ccc(S(=O)(=O)Nc2ncccn2)cc1,,inactive: 9.34%
COc1ccc2c(c1)c1c(c(=O)n(-c3cccc(C)c3)c(=O)n1CC(=O)NCC1CCCO1)n2C (centres undefined),"inconclusive: 1 µM [cytotoxic, partial curve, poor fit]",
COc1ccc(-c2cc(N3CCCC(NC(=O)c4cccs4)C3)n[nH]2)cc1 (centres undefined),"inconclusive: 31.6 µM [cytotoxic, single point]",
O=C1COc2ccc(NCc3cccs3)nc2CN1Cc1ccc(C(F)(F)F)cc1,"inconclusive: 56.2 µM [cytotoxic, single point]",
CCc1ccc(CNC(=O)c2ccc3c(c2)N(CC)C2CCCCCN2C3=O)cc1 (centres undefined),"inconclusive: 1.78 µM [rising, partial curve, poor fit]",
CN(CC(O)COc1cccc(CNCCc2ccc(F)cc2)c1)C1CCCCC1 (centres undefined),"inconclusive: 11.2 µM [cytotoxic, partial curve, poor fit]",
Cc1ccc(C(=O)NCC23CCC=C2N(C)C(=O)CC3)cn1 (centres undefined),"inconclusive: 2.82 µM [rising, full curve, poor fit]",
COc1ccccc1-n1c(=O)c2c3c(sc2n(Cc2ccccc2F)c1=O)CN(C(C)=O)CC3,"inconclusive: 20 µM [cytotoxic, single point]",
COc1ccccc1CN1CCNc2cc(-c3ccccc3)ncc2C1,"inconclusive: 56.2 µM [cytotoxic, single point]",
